Test results: PubChem BioAssay AID1345083 (National Center for Advancing Translational Sciences (NCATS), 2018)
Out of some 94,000 compounds screened, about 6,200 (6.6%) were called active. The inconclusive results got no clear call from the source; some entries with a clear call stand among them for comparison. Calls follow the shape of the dose curve; as a rule, active = well fitted inhibition curve with a large enough effect; inconclusive = small, poorly fitted or top-dose-only effect; inactive = flat fitted curve, though single readings scatter. Where the call is inconclusive, the potency comes from a doubtful curve fit.

Test: Cytotoxic Profiling in HEK 293 Cell Line of Diverse Libraries Using Quantitative High-Throughput Screening; also: nearly all actives have a fitted effect of over 60% in size
Details: HEK 293 viability, ATP luminescence (CellTiter-Glo), 48-72 h; activity change, negative = cytotoxicity: at 115 µM (top of the series) unless noted; series mostly up to 115 µM
Method in brief: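 Viability of HEK 293 cells, plated at 250 cells/well, was judged by cellular ATP after compound treatment for 48 or 72 hr. Luminescence was imaged 10 min after CellTiter-Glo addition at room temperature.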
% is scaled to controls: 0 for no effect and ±100 for the full control effect; potency is read from the fitted curve at half-maximal effect; tags tell the direction and shape of the fitted curve.

Row | Compound | Potency | activity change, negative = cytotoxicity
1 | CC(C)CCNC(=O)c1ccc2c(c1)CC(=O)N2Cc1ccc(F)cc1 | inconclusive: 31.6 µM [inhibitor, partial curve] | –
2 | COCCN1CCCC2(CCN(C(=O)Cn3cccnc3=O)C2)C1=O (configuration not stated) | inconclusive: 39.8 µM [inhibitor, single point] | –
3 | CC(C)(N)C(=O)N1CCCC(N2CCN(Cc3ccc4c(c3)OCO4)CC2)C1 (configuration not stated) | inconclusive: 100 µM [inhibitor, single point] | –
4 | O=C(c1ccccc1)N1CCc2sc(C(=O)N3CCN(c4ccc(F)cc4)CC3)cc2C1 | inconclusive: 39.8 µM [inhibitor, partial curve, poor fit] | –
5 | CN(CC1CCCO1)C(=O)c1coc(COc2cccc(C(F)(F)F)c2)n1 (configuration not stated) | – | inactive: -1.81%
6 | COc1ccc(-c2ccc3c(c2)C(=O)N2CC[C@H](NC(=O)c4cccc(F)c4)[C@H]2C(=O)N3)cc1 | inconclusive: 89.1 µM [inhibitor, single point] | –
7 | CN[C@@H](CO)C(=O)NCc1nc(-c2cccc(F)c2)c(-c2ccccn2)[nH]1 | inconclusive: 44.7 µM [inhibitor, partial curve] | –
8 | CN(C)CCNC(=O)c1nc2nc(-c3ccccc3)c(-c3ccccc3O)cc2n1C | inconclusive: 112 µM [inhibitor, partial curve, poor fit] | –
9 | Clc1cccc(N2CCN(C3CCCN(CCCc4ccccc4)C3)CC2)c1 (configuration not stated) | inconclusive: 39.8 µM [inhibitor, partial curve, poor fit] | –
10 | O=C(C1NCCc2[nH]cnc21)N1CCC(c2nc(-c3ccccc3)no2)CC1 (configuration not stated) | inconclusive: 89.1 µM [inhibitor, single point] | –
11 | COc1ccc(C(=O)Nc2ccc3c(c2)CN(Cc2ccc(OC)cc2OC)C(=O)CO3)cc1 | inconclusive: 56.2 µM [inhibitor, partial curve, poor fit] | –
12 | O=C(NCc1ccccc1)C1CCCN1Cc1ccc(-c2cncnc2)cc1 (configuration not stated) | inconclusive: 100 µM [inhibitor, single point] | –
13 | COc1ccc(OC)c(S(=O)(=O)N2CCC(CC(=O)NCc3ccccc3)C2)c1 (configuration not stated) | – | inactive: -14.4%
14 | Cc1nnc2ccc(N3CCC(NC(=O)c4cccc(Cl)c4)CC3)nn12 | – | inactive: -1.69%
15 | Cn1cc(CNCC2(COc3ccc(C(F)(F)F)cn3)C[C@@H](O)[C@@H](O)C2)cn1 (some centres not stated) | – | inactive: -28.2%
16 | CCCCC(=O)NC1CCN(c2cn[nH]c(=O)c2)CC1 | – | inactive: 2.91%
17 | CN(C)[S+](=O)([O-])c1ccc2c(c1)OCCN(Cc1cccc(Cl)c1)C2 | active: 79.4 µM | –
18 | CCOCC(=O)N1CC(c2nc(CCOc3cccc(C)c3)no2)C1 | – | inactive: -25.3%
19 | COc1ccc(-c2nnc3n2CCN(C(=O)C(C)(C)C)C3)cc1 | inconclusive: 35.5 µM [inhibitor, partial curve, poor fit] | –
20 | Cc1cccc(-c2cn[nH]c2C2CCN(C(=O)c3ccccc3OC(F)F)CC2)c1 | inconclusive: 50.1 µM [inhibitor, partial curve, poor fit] | –
21 | Cc1ccsc1C(=O)N1CCC2(CC1)NC(=O)N(c1cccc(Cl)c1)N2 | inconclusive: 31.6 µM [inhibitor, full curve] | –

Row | Compound | Potency | activity change, negative = cytotoxicity
22 | Cc1ccc(S(=O)(=O)N(C)CC2CCOCC2)cc1F | – | inactive: -30.7%
23 | O=C(c1ccc(Cl)cc1)N1CCC2(CC1)CC(c1ccccc1)=NO2 | inconclusive: 79.4 µM [inhibitor, partial curve, poor fit] | –
24 | CC1(c2ccccc2)N(Cc2ccccc2C#N)C(=O)OC12CCN(C(=O)Cc1ccc(O)cc1)CC2 (configuration not stated) | – | inactive: -23.3%
25 | COC[C@@H]1CN(C(=O)c2ccccc2)C[C@H]1c1nc(C2CC2)no1 | inconclusive: 39.8 µM [inhibitor, single point] | –
26 | COc1cc(CNC(=O)c2c(C)noc2-c2cc(OC)c(OC)c(OC)c2)cc(OC)c1 | inconclusive: 50.1 µM [inhibitor, partial curve, poor fit] | –
27 | Cc1ccccc1S(=O)(=O)N1CCN(C2CCN(CCC(C)C)C2=O)CC1 (configuration not stated) | inconclusive: 79.4 µM [inhibitor, partial curve, poor fit] | –
28 | O=C1NCCCCCN(C(=O)CCCc2ccccc2)[C@H]2CCC[C@@H]12 | – | inactive: -24.7%
29 | COc1ccc(CCNC(=O)c2cn3cc(-c4ccc(C(F)(F)F)cc4)sc3n2)cc1 | – | inactive: 0.186%
30 | Cc1ncccc1Oc1ncnc(-c2cc(N)nc3[nH]ccc23)c1C | inconclusive: 100 µM [inhibitor, single point] | –
31 | O=C(c1ccc2ccccc2n1)N1CCC(c2nc(CCOCC3CC3)no2)C1 (configuration not stated) | – | inactive: -7.3%
32 | COc1ccc(C(=O)N2CCC3(CC2)NC(=O)N(c2ccc(F)cc2)N3)cc1OC | inconclusive: 31.6 µM [inhibitor, full curve, poor fit] | –
33 | CC(C)c1ccc(CC(=O)N2CCCc3ncc(C(=O)Nc4cccc(C(F)(F)F)c4)cc32)cc1 | active: 31.6 µM | –
34 | CC(C)CCN1CCOc2cc(C(=O)Nc3ccc(F)cc3)ccc2C1 | inconclusive: 35.5 µM [inhibitor, partial curve, poor fit] | –
35 | Cc1cc(C(=O)Nc2ccc([C@H]3OCC(=O)N(Cc4ccccc4)[C@@H]3CO)cc2)n(C)n1 | inconclusive: 100 µM [inhibitor, partial curve, poor fit] | –
36 | CCn1nc(-c2ccc3c(c2)OCO3)nc1N(C)C | – | inactive: -4.22%
37 | Cc1noc(C)c1[S+](=O)([O-])N1CCCC(C(=O)N2CCC(c3nc4ncccc4[nH]3)CC2)C1 (configuration not stated) | – | inactive: -6.93%
38 | CN(C(=O)[C@@H]1C[C@@H](c2cccc(C(F)(F)F)c2)N(Cc2cnn(C)c2)C1)c1ccccc1 | inconclusive: 44.7 µM [inhibitor, partial curve, poor fit] | –
39 | COCCOc1ccc2c(n1)CCN(C(=O)C1(c3ccc(OC)cc3)CC1)C2 | inconclusive: 56.2 µM [inhibitor, single point] | –
40 | Cc1noc(C)c1C(=O)N1CC(CN2C(=O)c3c(c(C)nn3-c3ccccc3)C2C)C1 (configuration not stated) | – | inactive: -4.47%
41 | CCN(CC)C(=O)N1CCCC(c2nc(-c3ccccc3)no2)CCNC(=O)CC1 (configuration not stated) | – | inactive: -12.2%
42 | COc1ccccc1-c1cccc(CN2CCCC(C(=O)Nc3ccc(F)cc3)C2)c1 (configuration not stated) | active: 12.6 µM | –
